The results in this text go back to the antibiotic and cytotoxicity screens of Wong et al. (2023).

This is one part of the list.

In one test the test system is HSkMC. The test is described as follows: cytotoxicity call (relative viability < 0.9). Particulars: 10 µM.
The next test deals with HepG2. The test is described as follows: cytotoxicity call (relative viability < 0.9). Particulars: 10 µM.
In a further test the test system is S. aureus RN4220. The test is described as follows: growth inhibition call (relative growth <= 0.2). Particulars: 50 µM.

In the case of `COc1cc(O)cc(O)c1C(=O)c1ccccc1`, in the test on HSkMC, the cytotoxicity call is “inactive”. Moreover, the cytotoxicity call with HepG2 was “active”. Besides, the growth inhibition call in the test with S. aureus RN4220 is “inactive”.
As to `C[C@@H]1CN([C@@H](C)CO)C(=O)c2cccc(NC(=O)Nc3ccc(C(F)(F)F)cc3)c2O[C@H]1CN(C)C(=O)Nc1ccc(F)cc1`, the cytotoxicity call with HSkMC and with HepG2 was “inactive” in each case. Further, the growth inhibition call in the test on S. aureus RN4220 is “active”.
Consider `C[C@H]1CN([C@@H](C)CO)C(=O)c2cc(C#Cc3ccccc3F)cnc2O[C@@H]1CN(C)S(=O)(=O)c1ccccc1`, for which the cytotoxicity call in the test with HSkMC and in the test with HepG2 was “inactive” in each case. Besides, in the test on S. aureus RN4220, the growth inhibition call was “inactive”.
`CO[C@H](C(=O)N(C)C[C@H]1OCc2ccccc2-c2c(n(C)c3ccccc23)C(=O)N([C@H](C)CO)C[C@@H]1C)c1ccccc1`: the cytotoxicity call in the test with HSkMC and with HepG2 was “inactive” each time. The growth inhibition call in the test on S. aureus RN4220 was “inactive”.
For the molecule `CC(C)NC(=O)N(C)C[C@H]1Oc2cc(C#Cc3ccc(F)cc3)ccc2S(=O)(=O)N([C@H](C)CO)C[C@H]1C`, the cytotoxicity call in the test with HSkMC and with HepG2 was “inactive” in each case. Further, in the test on S. aureus RN4220, the growth inhibition call was “inactive”.
As to `C[C@H]1CN([C@@H](C)CO)C(=O)Cc2cc(NC(=O)C3CC3)ccc2O[C@H]1CN(C)C(=O)NC1CCCCC1`, the cytotoxicity call with HSkMC and in the test with HepG2 was “inactive” in each case. In the test with S. aureus RN4220, the growth inhibition call was “inactive”.
Consider `CCS(=O)(=O)NCC[C@@H]1CC[C@@H](NS(=O)(=O)c2ccccc2C)[C@@H](CO)O1`, for which the cytotoxicity call in the test on HSkMC and in the test on HepG2 was “inactive” each time. Also, the growth inhibition call in the test with S. aureus RN4220 was “inactive”.
As to `OC[C@H]1O[C@H]2O[C@@H]3[C@@H](O)[C@H](O)[C@H](O[C@@H]4[C@@H](O)[C@H](O)[C@H](O[C@@H]5[C@@H](O)[C@H](O)[C@H](O[C@@H]6[C@@H](O)[C@H](O)[C@H](O[C@@H]7[C@@H](O)[C@H](O)[C@H](O[C@@H]8[C@@H](O)[C@H](O)[C@H](O[C@@H]1[C@@H](O)[C@@H]2O)O[C@@H]8CO)O[C@@H]7CO)O[C@@H]6CO)O[C@@H]5CO)O[C@@H]4CO)O[C@@H]3CO`, the cytotoxicity call in the test on HSkMC and with HepG2 was “inactive” in each case. Moreover, the growth inhibition call in the test with S. aureus RN4220 was “inactive”.
`CC(C)NC(=O)N(C)C[C@H]1OCCCC[C@H](C)Oc2ccc(NS(=O)(=O)c3cn(C)cn3)cc2C(=O)N([C@@H](C)CO)C[C@@H]1C`: the cytotoxicity call with HSkMC and in the test with HepG2 was “inactive” each time. In addition, in the test with S. aureus RN4220, the growth inhibition call was “inactive”.
Turning to `O=C(C[C@H]1CC[C@H]2[C@@H](COC[C@@H](O)CN2S(=O)(=O)c2ccc(F)cc2)O1)N[C@@H]1CCN(Cc2ccccc2)C1`, the cytotoxicity call in the test with HSkMC and with HepG2 was “inactive” throughout. Also, the growth inhibition call with S. aureus RN4220 was “inactive”.
For the molecule `Nc1nnnn1CC(=O)OCC(=O)Nc1ccccc1`, the cytotoxicity call in the test with HSkMC and with HepG2 was “inactive” in each case. In addition, the growth inhibition call in the test on S. aureus RN4220 was “inactive”.
For the molecule `C[C@H](NC(=O)C[C@@H]1CC[C@H](NC(=O)CN2CCOCC2)[C@H](CO)O1)c1ccccc1`, the cytotoxicity call in the test on HSkMC and in the test with HepG2 was “inactive” in each case. Besides, the growth inhibition call in the test on S. aureus RN4220 is “inactive”.
For the molecule `Cc1noc(C)c1NC(=O)N(C)C[C@H]1Oc2ccc(NC(=O)CCN3CCOCC3)cc2C(=O)N([C@@H](C)CO)C[C@@H]1C`, the cytotoxicity call in the test with HSkMC and in the test with HepG2 was “inactive” each time. Moreover, in the test with S. aureus RN4220, the growth inhibition call was “inactive”.
In the case of `C[C@@H]1CN([C@@H](C)CO)C(=O)Cc2cc(NS(=O)(=O)c3ccccc3)ccc2O[C@@H]1CN(C)Cc1ccc(-c2ccccc2)cc1`, the cytotoxicity call in the test with HSkMC and in the test on HepG2 was “active” each time. For the same molecule, the growth inhibition call with S. aureus RN4220 was “inactive”.
As for `CN1CCN(C(=O)[C@H]2[C@H](CO)[C@H]3Cn4c(ccc(C5=CCCCC5)c4=O)[C@@H]2N3S(C)(=O)=O)CC1`, the cytotoxicity call with HSkMC and with HepG2 was “inactive” throughout. In the test on S. aureus RN4220, the growth inhibition call is “inactive”.
With `CCCNC(=O)N1C[C@@H](C)[C@H](OC)CN(C)C(=O)c2ccc(NS(=O)(=O)CC(F)(F)F)cc2OC[C@H]1C`, the cytotoxicity call in the test on HSkMC and with HepG2 was “inactive” throughout. In the test with S. aureus RN4220, the growth inhibition call was “inactive”.
For the molecule `O=C(C[C@H]1CC[C@H]2[C@@H](COC[C@H](O)CN2C(=O)Nc2ccc(C(F)(F)F)cc2)O1)NCc1ccncn1`, the cytotoxicity call in the test with HSkMC and with HepG2 was “inactive” each time. In the test with S. aureus RN4220, the growth inhibition call is “inactive”.
`COc1ccc(S(=O)(=O)N(C)C[C@H]2Oc3ccc(N(C)C)cc3C(=O)N([C@H](C)CO)C[C@@H]2C)cc1`: the cytotoxicity call with HSkMC and in the test on HepG2 was “inactive” throughout. Further, the growth inhibition call in the test on S. aureus RN4220 is “inactive”.
`CC(C)C(=O)NCc1ccnc(N(C)C)n1`: the cytotoxicity call in the test on HSkMC and in the test with HepG2 was “inactive” in each case. In addition, in the test with S. aureus RN4220, the growth inhibition call was “inactive”.
With `CCc1nnc(NC(=O)c2nnc[nH]2)s1`, the cytotoxicity call in the test on HSkMC and with HepG2 was “inactive” throughout. Further, in the test on S. aureus RN4220, the growth inhibition call was “inactive”.
For the molecule `C[C@@H]1CN([C@@H](C)CO)C(=O)c2cc(NC(=O)Cc3cn(C)c4ccccc34)ccc2O[C@@H]1CN(C)C(=O)Nc1ccc(C(F)(F)F)cc1`, in the test with HSkMC, the cytotoxicity call is “active”. In addition, in the test with HepG2, the cytotoxicity call is “inactive”. Further, the growth inhibition call in the test on S. aureus RN4220 is “inactive”.
On to `C[C@@H]1CN([C@H](C)CO)C(=O)Cc2cc(NS(=O)(=O)c3ccc(F)cc3)ccc2O[C@@H]1CN(C)S(=O)(=O)c1cccs1`, for which the cytotoxicity call with HSkMC and with HepG2 was “inactive” each time. Also, the growth inhibition call in the test with S. aureus RN4220 was “inactive”.
On to `C[C@@H]1CN([C@@H](C)CO)C(=O)c2cc(NC(=O)NC3CCCCC3)ccc2O[C@@H](C)CCCCO[C@H]1CN(C)C(=O)Nc1ccccc1`, for which the cytotoxicity call in the test on HSkMC and in the test on HepG2 was “inactive” each time. Besides, the growth inhibition call in the test with S. aureus RN4220 is “inactive”.
With `Cc1ccc(-c2nc(Nc3ccccc3F)sc2C)cc1`, the cytotoxicity call in the test on HSkMC and in the test with HepG2 was “inactive” each time. Also, in the test on S. aureus RN4220, the growth inhibition call was “inactive”.
Take `Cc1cccc(-n2cc(CN)cn2)c1`: the cytotoxicity call in the test with HSkMC and with HepG2 was “inactive” throughout. The growth inhibition call in the test on S. aureus RN4220 is “inactive”.
In the case of `CC(C)NC(=O)N(C)C[C@H]1Oc2ccc(NC(=O)Nc3ccc4c(c3)OCO4)cc2CC(=O)N([C@@H](C)CO)C[C@H]1C`, the cytotoxicity call with HSkMC and with HepG2 was “inactive” in each case. For the same molecule, in the test on S. aureus RN4220, the growth inhibition call was “inactive”.
As for `C[C@@H]1CCCCO[C@@H](CN(C)C(=O)NC2CCCCC2)[C@H](C)CN([C@@H](C)CO)C(=O)c2cc(NS(=O)(=O)c3cccs3)ccc2O1`, the cytotoxicity call in the test on HSkMC (human skeletal muscle cells) and with HepG2 was “inactive” throughout. The growth inhibition call in the test with S. aureus RN4220 is “inactive”.
